PubChem BioAssay AID1508623 (National Center for Advancing Translational Sciences (NCATS), 2021)
Out of some 48,000 compounds screened, about 450 (0.94%) were called active. About 19% were inconclusive and are not listed. Calls follow the shape of the dose curve; as a rule, active = well fitted inhibition curve with a large enough effect; inconclusive = small, poorly fitted or top-dose-only effect; inactive = no such curve, though single readings can be large or run the other way. The list shows a part of the results.

Assay: Primary qHTS for Identification of Small Molecule Inhibitors of Huntingtin Promoter Activity; also: nearly all actives have a fitted effect of over 50% in size
Settings: HEK293 HTT promoter firefly luciferase reporter (activity 0% = vehicle and -100% = no light), 24 h; series mostly up to 57.5 µM; activity change, negative = inhibition: at the top concentration
How it was run: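 Luminescence was read after Dual-Glo reagent and a 10 min room-temperature incubation. Values were normalized to vehicle (0% activity) and zero RLU (-100% activity). Reporter HEK293 cells had been exposed to compounds (up to 57.5 uM final) for 24 h.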

Activity change, negative = inhibition, inactive:
O=C(CN1C(=O)COc2ccc(S(=O)(=O)N3CCCCC3)cc21)NCc1ccc(Cl)cc1 -22.2%
Cc1ccc(CNC(=O)c2nnn(CC(=O)Nc3cc(C)ccc3C)c2N)cc1 -3.2%
CSCCC(NS(=O)(=O)c1ccc2c(c1)oc(=O)n2C)C(=O)N1CCN(c2cccc(Cl)c2)CC1 (stereo unspecified) -25%
CCOc1ccc(-c2cc(-c3nc(-c4cc(OC)c(OC)c(OC)c4)no3)[nH]n2)cc1 -26.1%
Fc1ccc(-c2noc3ncnc(NCC4CCN(Cc5ccc(Cl)cc5)CC4)c23)cc1 -27.7%
COc1cc(NC(=O)c2cc(C)nc3c2c(C)nn3-c2ccccc2Cl)cc(OC)c1 -24.6%
CO[C@@]1(NC(=O)CSC[C@@H](N)C(=O)O)C(=O)N2C(C(=O)O)=C(CSc3nnnn3C)CS[C@@H]21 6.52%
Cc1ccc2cc3c(N)nn(C(=O)c4cccc(F)c4)c3nc2c1 16.9%
Cc1cc2nc3c(=O)[nH]c(=O)nc-3n(CC(O)C(O)C(O)CO)c2cc1C (stereo unspecified) 1.27%
Cc1cc(C)cc(NC(=O)Cn2nnc(-c3nc(-c4ccncc4)no3)c2N)c1 -13.1%
Cc1cc2c(cc3c(SCc4nc(-c5ccccc5)oc4C)nnc(C)n32)o1 -14.9%
COc1ccc(N2CCN(C(=O)c3cccc(NC(=O)c4nsc5ccccc45)c3)CC2)cc1 -29.9%
CCOC(=O)c1ccc(NC(=O)Nc2cc3c(cc2N2CCCC2)n(C)c(=O)n3C)cc1 -3.2%
Cc1cc(CC(=O)O)n(C)c1C(=O)c1ccc(Cl)cc1 5.44%
Nc1c(C(=O)Nc2ccc(F)c(F)c2)sc2nc(-c3ccncc3)ccc12 14.4%
COC(=O)c1cc(NC(=O)c2nn(C)c3c2COc2ccccc2-3)cc(C(=O)OC)c1 -12.1%
COc1cccc(CNC(=O)c2cc(C)nc3c2c(C)nn3-c2cccc(F)c2)c1 -19.8%
COc1ccccc1NC(=O)C1=C(C)Nc2nc(SCc3ccccc3F)nn2C1c1cccs1 (stereo unspecified) -20%
O=C(COCc1cc(-c2ccc3c(c2)OCO3)on1)N1CCN(c2ccccc2)CC1 -30.5%
Cc1ccc(S(=O)(=O)NCCc2cn3ccsc3n2)cc1 0.0146%
CCC(CC)C(=O)Nc1nc2c(s1)CC(C)CC2 (stereo unspecified) -8.71%
COc1ccc(-n2nnnc2C2CCN(S(=O)(=O)c3ccc(C(C)(C)C)cc3)CC2)cc1 -7.94%
COc1ccc(NC(=O)CCc2nnc3n(CC(C)C)c(=O)c4ccccc4n23)cc1 0.93%
CCc1ccccc1NC(=O)C1CCCN(c2ncnc3onc(C)c23)C1 (stereo unspecified) -29.1%
CC12CCC(CC1)C(C)(C)O2 13%
COc1ccc(CNC(=O)c2ccc(CS(=O)Cc3ccccc3Cl)o2)cc1 (stereo unspecified) -3.32%
Cc1ccc(-n2nc(C(=O)N3CCN(c4cc(Cl)ccc4C)CC3)c3c4ccccc4n(C)c3c2=O)cc1 -5.54%
O=C(c1ccc(CSc2nc3ccncc3n2Cc2ccccc2)cc1)N1CCCCCC1 -19.2%
Cc1ccc(NC(=O)Cn2ccn(-c3ccc(F)c(F)c3)c(=O)c2=O)cc1C -19.1%
C=Cc1ccc(CSc2nc(-c3ccc(C)cc3)nc3c2Cc2c(CO)cnc(C)c2O3)cc1 -11.7%
O=C(Nc1cccc(C(=O)OCc2cc(=O)n3c4c(sc3n2)CCCC4)c1)c1ccccc1 -8.14%
Cc1cccc(NC(=O)C(NS(=O)(=O)c2ccc3c(c2)oc(=O)n3C)C(C)C)c1 (stereo unspecified) -8.71%
O=c1c(S(=O)(=O)c2cccc(Cl)c2)cn(Cc2ccccc2)c2cc(N3CCOCC3)c(F)cc12 -7.63%
O=C1NC(=O)C(=Cc2ccc(-c3ccc(F)cc3)o2)S1 -17.8%
CCOc1ccc(S(=O)(=O)Nc2nc3ccccc3nc2Nc2ccc(OC)cc2)cc1 -1.9%
CCCNC(=O)CCSc1nc(-c2ccc3c(c2)OCO3)cc(C(F)(F)F)n1 -8.94%
Cc1cc(C)c2nc(N(Cc3cccnc3)C(=O)CCOc3ccccc3)sc2c1 -0.61%
COc1cc(CCC(=O)NCc2ccc3c(c2)CCN3C(=O)c2ccc(F)cc2)cc(OC)c1OC -2.48%
CCOC(=O)c1c(SCC(=O)Nc2cc(Cl)cc(Cl)c2)nc(=O)[nH]c1C 2.56%
COc1ccc(-c2nc3c(c(SCC(=O)N(C)c4ccccc4)n2)Cc2cc(C)ccc2O3)cc1 -13.4%
CCCCNC(=O)C1CCC(CNS(=O)(=O)c2ccc(NC(C)=O)cc2)CC1 (stereo unspecified) 20.6%
COc1ccc2ncc3c(-c4ccc(C)c(C)c4)nn(CC(=O)NC4CCCC4)c3c2c1 -15.3%
Cc1ccc2nc(NCc3ccc(F)cc3)c3nncn3c2c1 -3.25%
CCN(CC)c1ccc(NC(=O)Cn2nc(C)n3cccc3c2=O)c(C)c1 -6.33%
Cc1cccc(-n2ncc3c(N4CCN(c5ccccc5)CC4)ncnc32)c1 -13.7%
CCc1ccccc1NC(=O)CCc1c(C)nn(-c2ccc(N3CCOCC3)nn2)c1C -6.78%
CCc1nn2c(=O)cc(COC(=O)c3ccccc3NC(=O)C3CCCCC3)nc2s1 -5.55%
CC(=O)Nc1ncc([N+](=O)[O-])s1 13.8%
O=C(c1ccc(F)cc1)n1nc(-c2ccccc2)nc1NCc1ccc(F)cc1 4.92%
COc1ccc(Cn2c(=O)[nH]c3cc(C(=O)N4CCN(c5cc(Cl)ccc5C)CC4)ccc3c2=O)cc1 -9.82%
COc1ccccc1-c1noc(-c2ccc(NC(C)C)c([N+](=O)[O-])c2)n1 34.5%
COc1ccc(-c2nn(-c3cccc(F)c3)c3c2cnc2cc(OC)c(OC)cc23)cc1 -22.4%
COc1ccc2[nH]cc(S(=O)(=O)c3ccc(C)c(C)c3)c(=O)c2c1 -23.3%
O=C(CCCCn1c(=O)c2ccccc2n(CC(=O)Nc2cccc(F)c2)c1=O)NCCc1ccccc1 -10.2%
CCc1ccc(NC(=O)Cn2cc(S(=O)(=O)N3CCCC3)c(S(=O)(=O)N3CCCC3)c2)cc1 -13.4%
CC(C)NC(=O)CCN1C(=O)c2ccccc2Sc2ncccc21 -1.46%
O=C(NC1CC(=O)N(c2ccc(F)cc2)C1)C1CC1 (stereo unspecified) -3.32%
COc1ccc2oc(=O)c(-c3nc(-c4cccs4)no3)cc2c1 1.63%
Cc1ccc(NC(=O)Cn2nnc(C(=O)NCc3ccc4c(c3)OCO4)c2N)cc1Cl -16.2%
Cc1cc(C)cc(NC(=O)CCCc2nc(-c3ccccc3Cl)no2)c1 -21.3%
CSc1nc2sc3c(c2c(=O)n1-c1ccccc1)CCC(C(C)(C)C)C3 (stereo unspecified) -2.62%
